Measured values reported in PubChem BioAssay AID1468 (National Center for Advancing Translational Sciences (NCATS), 2008).
The campaign covered roughly 280,000 compounds. About 1,100 (0.39%) were called active. The shares of active, inactive and inconclusive entries below differ from those in the screen. Calls come from the whole dose curve; as a rule, active = well fitted inhibition curve with a large enough effect; inconclusive = small, poorly fitted or top-dose-only effect, or effect the other way; inactive = flat fitted curve, though single readings scatter. Potencies of inconclusive entries are left out as doubtful fits.

molecular target: Microtubule-associated protein tau (Homo sapiens) (UniProt P10636); assay: qHTS for Inhibitors of Tau Fibril Formation, Fluorescence Polarization; details: K18 P301L tau heparin fibrillization, Alexa594 FP, 6 h; series mostly up to 57.7 µM; activity, negative = inhibition: at the top concentration; note: nearly all actives have a fitted effect of over 55% in size
Procedure, shortened: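 Steps: dispense K18 P301L tau (15 uM plus 0.24 uM Alexa 594 tracer, final) in pH 7 sodium acetate; add compound; add heparin (20 uM final); incubate 6 hr, 37 C; add ThT (30 uM final); after 1 hr ambient, read FP.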
% is set by controls: 0 for no effect and ±100 for the full control effect; potency is the fitted concentration of half-maximal effect; tags give direction and shape of the fitted curve.

Sequence of UniProt P10636 (P10636 whole entry, looked up): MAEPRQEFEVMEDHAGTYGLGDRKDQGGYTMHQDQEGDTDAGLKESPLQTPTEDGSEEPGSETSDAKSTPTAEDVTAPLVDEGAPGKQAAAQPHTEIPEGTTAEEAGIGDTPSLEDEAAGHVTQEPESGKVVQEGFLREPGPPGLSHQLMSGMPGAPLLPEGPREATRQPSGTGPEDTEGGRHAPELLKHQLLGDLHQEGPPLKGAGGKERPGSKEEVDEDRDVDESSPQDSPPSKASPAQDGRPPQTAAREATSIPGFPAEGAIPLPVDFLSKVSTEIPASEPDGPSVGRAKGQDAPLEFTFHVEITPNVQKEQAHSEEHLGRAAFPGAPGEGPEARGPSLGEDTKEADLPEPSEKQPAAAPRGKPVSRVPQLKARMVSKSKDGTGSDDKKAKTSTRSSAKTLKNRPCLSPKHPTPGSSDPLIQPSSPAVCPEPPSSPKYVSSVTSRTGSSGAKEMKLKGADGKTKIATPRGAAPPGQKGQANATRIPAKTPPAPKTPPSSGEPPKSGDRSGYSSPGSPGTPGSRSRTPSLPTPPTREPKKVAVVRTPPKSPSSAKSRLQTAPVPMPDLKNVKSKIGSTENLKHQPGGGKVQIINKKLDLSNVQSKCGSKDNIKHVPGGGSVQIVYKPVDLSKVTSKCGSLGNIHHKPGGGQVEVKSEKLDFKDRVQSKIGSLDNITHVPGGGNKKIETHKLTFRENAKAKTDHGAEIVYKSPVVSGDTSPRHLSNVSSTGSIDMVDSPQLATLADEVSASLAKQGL

| Structure (SMILES) | Potency | activity, negative = inhibition |
| --- | --- | --- |
| COc1cccc2cc(C(=O)NCCc3c(C)[nH]c4ccc(F)cc34)c(=O)oc12 | inconclusive [activator, partial curve] |  |
| CC1CCN(S(=O)(=O)c2ccc3c(ccn3CCC(=O)NCc3ccc(N(C)C)cc3)c2)CC1 | inconclusive [activator, partial curve, poor fit] |  |
| COC(=O)c1ccccc1NC(=O)c1ccc2nc(CCc3ccccc3)oc2c1 | inconclusive [inhibitor, partial curve, poor fit] |  |
| Cc1ccc(Nc2nnc(SCC(=O)Nc3ccc(S(=O)(=O)N4CCOCC4)cc3)s2)cc1 | inconclusive [inhibitor, single point] |  |
| O=C(Nc1ccccc1F)Nc1cc(S(=O)(=O)N2CCOCC2)ccc1N1CCCC1 |  | inactive: 2.94% |
| Cc1ccc(-c2cc3nc(-c4ccc(Br)cc4)cc(N)n3n2)cc1 | inconclusive [inhibitor, partial curve, poor fit] |  |
| COc1ccc2oc(=O)c(C(=O)Oc3ccc(NC(C)=O)cc3)cc2c1 |  | inactive: 3.35% |
| COc1cccc(-c2noc(COc3ccccc3Cl)n2)c1 | inconclusive [inhibitor, partial curve] |  |
| Cc1ccc(N=Cc2c(O)ccc3ccccc23)cc1F | inconclusive [inhibitor, single point] |  |
| Cc1cccc(NC(=S)NCCC(c2ccccc2)c2ccccc2)c1 | inconclusive [inhibitor, single point] |  |
| Cc1ccc(S(=O)(=O)C2(C(=O)N3CCCCCC3)CC2)cc1 |  | inactive: 9.29% |
| COc1ccc2nc(C)cc(Nc3ccc(Cl)c(Cl)c3)c2c1 |  | inactive: 1.17% |
| Cc1cc([N+](=O)[O-])ccc1-c1ccc(/C=N/NC(=O)Cc2ccccc2)o1 |  | inactive: -4.54% |
| CN(C)C(=S)Nc1cccc(C(F)(F)F)c1 |  | inactive: -3.65% |
| Cn1c(/C(C#N)=C/c2ccc(-c3ccc(S(N)(=O)=O)cc3)o2)nc2ccccc21 | inconclusive [inhibitor, single point] |  |
| CC(C)Cn1c(N)c(C(=O)CSc2cc(Cl)ccc2Cl)c(=O)n(C)c1=O | inconclusive [inhibitor, full curve] |  |
| Cc1cc(C)cc(-n2c(SCC(N)=O)nc3c([nH]c4ccccc43)c2=O)c1 |  | inactive: -2.01% |
| Cc1cccc(NS(=O)(=O)c2ccc(C3CCCCC3)cc2)c1 | inconclusive [inhibitor, partial curve] |  |
| COc1ccc(Nc2ncnc3c2cnn3-c2ccc(C)cc2)cc1Cl | inconclusive [inhibitor, single point] |  |
| Cc1ccc2nc(-c3cccc(NC(=O)c4cccc5ccccc45)c3)oc2c1 | inconclusive [inhibitor, partial curve] |  |
| O=C(Cc1cn2ccsc2n1)Nc1nc2c(s1)CN(Cc1ccccc1)CC2 | inconclusive [inhibitor, partial curve, poor fit] |  |
| COc1ccc(OCC(=O)NNc2c3ccccc3nc3ccccc23)cc1 | inconclusive [activator, single point] |  |
| Cc1ccccc1OCc1nc(-c2ccc(NC(=O)c3cccs3)cc2)no1 | inconclusive [inhibitor, partial curve] |  |

| Structure (SMILES) | Potency | activity, negative = inhibition |
| --- | --- | --- |
| CC[n+]1c(C)sc2c(C)cc(C)cc21 | inconclusive [inhibitor, partial curve, poor fit] |  |
| CC(C)(C)NC(=O)c1ccc2c(c1)N(CC(=O)N1CCN(c3ccccc3F)CC1)C(=O)C(C)(C)O2 |  | inactive: 7.1% |
| O=C(O/N=C/c1cccc([N+](=O)[O-])c1)C1CC1 | inconclusive [inhibitor, full curve, poor fit] |  |
| O=C(OC1Cc2c(O)cc(O)cc2OC1c1cc(O)c(O)c(O)c1-c1c(C2Oc3cc(O)cc(O)c3CC2OC(=O)c2cc(O)c(O)c(O)c2)cc(O)c(O)c1O)c1cc(O)c(O)c(O)c1 (stereo not drawn) | inconclusive [inhibitor, partial curve] |  |
| CN1c2ccc(Cl)cc2-c2nc(SCC(=O)NCc3ccccc3)ncc2S1(=O)=O | inconclusive [inhibitor, partial curve] |  |
| COc1cccc(CNC(=O)c2cnc(N3CCCCC3)c3ccccc23)c1 |  | inactive: -0.532% |
| c1ccc(-c2csc(NNC3=NCCCCC3)n2)cc1 | active: 25.1 µM |  |
| COc1ccc(-n2cc(C(=O)c3ccccc3O)cn2)cc1 |  | inactive: -11.3% |
| Cn1nnnc1SCC(=O)Nc1ccccc1N1CCOCC1 |  | inactive: -2.07% |
| CCOC(=O)c1c(NC(=O)/C=C/C(=O)O)sc(C)c1-c1ccc(Cl)cc1 | inconclusive [inhibitor, single point] |  |
| COc1cccc(NC(=O)Cc2nc(-c3ccccc3)sc2-c2ccc(C)cc2)c1 | inconclusive [inhibitor, partial curve] |  |
| COc1cccc(NC(=O)Cn2c(=O)n(CCCCC(=O)NCCc3ccccc3)c(=O)c3ccccc32)c1 | inconclusive [inhibitor, single point] |  |
| Cc1ccc(NC(=S)Nc2ccc(C(C)C)cc2)cc1S(=O)(=O)N1CCCCCC1 | active: 12.6 µM |  |
| NC(=S)N/N=C/c1ccc(-c2ccc([N+](=O)[O-])cc2)o1 | inconclusive [inhibitor, partial curve] |  |
| CCC(=O)NC(=S)NNC(=O)c1ccc([N+](=O)[O-])cc1 |  | inactive: -12.1% |
| Cc1ccccc1NCC(=O)N/N=C/c1c[nH]c2ccccc12 | inconclusive [activator, single point] |  |
| O=C(Nc1ccc(O)cc1)C1CC=CCC1 (stereo not drawn) | inconclusive [inhibitor, single point] |  |
| Cc1cccc(C)c1NC(=O)CCS(=O)(=O)c1cccc2nsnc12 | inconclusive [inhibitor, partial curve] |  |
| CCOC(=O)CN1C(=O)c2cccnc2Oc2ccccc21 |  | inactive: -4.21% |
| CCOc1ccc(Nc2cc(C)nc(-n3nc(C)cc3C)n2)cc1 |  | inactive: 3.45% |
| O=C(Cn1nnc(-c2ccccc2NC(=O)c2ccccc2)n1)Nc1ccc2c(c1)OCCO2 | inconclusive [inhibitor, partial curve] |  |
| COc1ccc(S(=O)(=O)N(C(C)=O)c2ccc(OC(C)=O)c3ccccc23)cc1[N+](=O)[O-] | inconclusive [inhibitor, partial curve, poor fit] |  |
| Cc1ccccc1-n1c(=O)cc(N2CC(C)OC(C)C2)[nH]c1=O (stereo not drawn) | inconclusive [inhibitor, single point] |  |

| Structure (SMILES) | Potency | activity, negative = inhibition |
| --- | --- | --- |
| Cc1nn2c(C)c(C(=O)NCC(C)c3ccccc3)cnc2c1-c1ccccc1 (stereo not drawn) |  | inactive: -1.21% |
| Fc1ccc(Cn2c(-c3cccc(Br)c3)nc3ccccc32)cc1 | inconclusive [inhibitor, single point] |  |
| CCOc1ccc(CCNC(=O)Cn2nc(CC)n3c(cc4sccc43)c2=O)cc1 |  | inactive: 0.535% |
| CCOc1cc(C2c3c(-c4ccccc4O)n[nH]c3C(=O)N2Cc2cccnc2)ccc1O (stereo not drawn) |  | inactive: 7.16% |
| CSc1ccc(/C=C2/C(C)=C(CC(=O)O)c3cc(F)ccc32)cc1 | inconclusive [inhibitor, single point] |  |
| Cc1cccc(S(=O)(=O)c2c(N)n(/N=C/c3ccccc3)c3nc4ccccc4nc23)c1 | inconclusive [inhibitor, single point] |  |
| CC(C)c1ccc(NCCC(=O)c2cccs2)cc1 |  | inactive: 17.2% |
| COC(=O)c1cc2c(C(F)(F)F)nn(C)c2s1 |  | inactive: 3.68% |
| CC1C(=O)CCN(C(C)(C)C)C1C (stereo not drawn) | inconclusive [inhibitor, single point] |  |
| O=C(c1ccccc1)c1ccc2nc(-c3ccc(NC(=O)c4ccccc4Br)cc3)[nH]c2c1 | inconclusive [inhibitor, partial curve] |  |
| Cc1ccc(S(=O)(=O)c2nc(-c3ccco3)oc2SCC(=O)Nc2ccc(F)cc2)cc1 | inconclusive [inhibitor, partial curve] |  |
| Cc1cccc(C)c1NC(=O)Cn1c(=O)n(Cc2ccco2)c(=O)c2ccc(C(=O)NC3CCCC3)cc21 | inconclusive [inhibitor, partial curve] |  |
| CC(=O)Oc1c2occc2cc2ccc(=O)oc12 | inconclusive [inhibitor, partial curve] |  |
| CC1CCN(S(=O)(=O)c2ccc(NC(=O)Cc3ccccc3)cc2)CC1 | inconclusive [inhibitor, partial curve] |  |
| COc1ccc(CNC(=O)c2ccc3c(c2)NC(=O)C(C)S3)cc1 (stereo not drawn) | inconclusive [inhibitor, single point] |  |
| O=C(O)CN1CCN(Cc2ccccc2F)C1=O |  | inactive: 8.73% |
| N#C/C(=C/c1ccco1)C(N)=S | inconclusive [inhibitor, single point] |  |
| CCOC(=O)c1cc(CC)sc1NC(=O)C1CC(=O)NN1Cc1ccccc1 (stereo not drawn) |  | inactive: -0.443% |
| O=C(COC(=O)c1n[nH]c2ccccc12)Nc1ccc(S(=O)(=O)N2CCCC2)cc1 | inconclusive [inhibitor, partial curve] |  |
| CC(Cc1ccccc1)C(=O)NCCc1c[nH]c2ccccc12 (stereo not drawn) | inconclusive [activator, single point] |  |
| CC(=O)Nc1nonc1-c1nnc(SCC(=O)Nc2ccc(C)c(Cl)c2)n1-c1ccccc1 | inconclusive [inhibitor, partial curve] |  |
| CCOc1ccccc1NC(=O)c1oc2ccccc2c1NC(=O)C1CCCO1 (stereo not drawn) | inconclusive [inhibitor, single point] |  |
